We go through 4 molecules from publication PMC11208152, “Dynamic Arabidopsis P5CS filament facilitates substrate channelling” (Nature Plants, 2024).

In assay [1] the target is Arabidopsis thaliana delta-1-pyrroline-5-carboxylate synthase 2 (AtP5CS2), wild type (Arabidopsis thaliana) (UniProt P54888). The experiment in a line: condition: only APO state (ligand-free); protein about 2-4 μM; negative-staining EM; APO (ligand-free) state, 20 mM Tris-HCl, 150 mM NaCl, 10 mM MgCl2, pH 8.0; purified protein about 2-4 μM; step looked for: oligomers (tetramers) into filaments; both purified.

Assay [2] deals with AtP5CS2-F80A mutant (Arabidopsis thaliana) (UniProt P54888). The description is as above.
Assay [3] shares this target. The assay is described as follows: negative-staining EM; purified protein about 2-4 μM incubated at 25 °C with substrates (ATP, glutamate, both, or all substrates = mixed state) at the concentrations of the activity assay; step seen: oligomers (tetramers) into filaments; both purified.
Assay [4] addresses Arabidopsis thaliana delta-1-pyrroline-5-carboxylate synthase 1 (AtP5CS1) (Arabidopsis thaliana) (UniProt P54887). The assay is described as follows: condition: only APO state (ligand-free); protein about 2-4 μM; negative-staining EM; APO (ligand-free) state, 20 mM Tris-HCl, 150 mM NaCl, 10 mM MgCl2, pH 8.0; purified protein about 2-4 μM; step looked for: oligomers (tetramers) into filaments; both purified.

For assay [5], the target named is AtP5CS2-GK, truncated AtP5CS2 consisting of residues 1-290 (glutamate kinase domain) (Arabidopsis thaliana) (UniProt P54888). The assay is described as follows: negative-staining EM; APO (ligand-free) state, 20 mM Tris-HCl, 150 mM NaCl, 10 mM MgCl2, pH 8.0; purified protein about 2-4 μM; step looked for: oligomers (tetramers) into filaments; both purified.

These are yes or no findings as the source states them, for the method shown. Some binding calls cover weakened binding; strength is not graded here.

B1: Arabidopsis thaliana delta-1-pyrroline-5-carboxylate synthase 2 (AtP5CS2), wild type (enzyme, UniProt P54888 1-726, looked up)
chain: MTEIDRSRAFAKDVKRIVVKVGTAVVTGKGGRLALGRLGAICEQLAELNSDGFEVILVSSGAVGLGRQRLRYRQLVNSSFADLQKPQMELDGKACAGVGQSSLMAYYETMFDQLDVTVAQMLVTDSSFRDKDFRKQLSETVKAMLRMRVIPVFNENDAISTRRAPYKDSTGIFWDNDSLAALLSLELKADLLILLSDVEGLYTGPPSDSTSKLIHTFIKEKHQDEITFGEKSKLGRGGMTAKVKAAVNAAYGGVPVIITSGYAAENISKVLRGLRVGTLFHQDAHLWAPVVDTTSRDMAVAARESSRKLQALSSEDRKQILHDIANALEVNEKTIKAENDLDVAAAQEAGYEESLVARLVMKPGKISSLAASVRQLAEMEDPIGRVLKKTQVADDLILEKTSSPIGVLLIVFESRPDALVQIASLAIRSGNGLLLKGGKEARRSNAILHKVITDAIPETVGGKLIGLVTSREEIPDLLKLDDVIDLVIPRGSNKLVSQIKNSTKIPVLGHADGICHVYVDKSGKLDMAKRIVSDAKLDYPAACNAMETLLVHKDLEQNGFLDDLIYVLQTKGVTLYGGPRASAKLNIPETKSFHHEYSSKACTVEIVEDVYGAIDHIHQHGSAHTDCIVTEDSEVAEIFLRQVDSAAVFHNASTRFSDGFRFGLGAEVGISTSRIHARGPVGVEGLLTTRWIMRGKGQVVDGDNGIVYTHKDLPVLQRTEAVENGI
notes: Delta-1-pyrroline-5-carboxylate synthase 2 (P5CS2) of Arabidopsis thaliana; In the filament the helical unit is a tetramer (GK tetramer core, two GPR dimers); Only the GK tetramer was modelled at high resolution; also called AtP5CS2-WT; WT AtP5CS2; source: E. coli Rosetta (DE3), purified (Ni-NTA, SUMO-tag removed with yeast ULP1, Superose 6 Increase SEC); not shown: His6, N-terminal, cleaved; …
With B1, in assay [1], the binding result is listed as “no binding”.

B2: AtP5CS2-F80A mutant (enzyme, UniProt P54888 1-726)
chain: MTEIDRSRAFAKDVKRIVVKVGTAVVTGKGGRLALGRLGAICEQLAELNSDGFEVILVSSGAVGLGRQRLRYRQLVNSSAADLQKPQMELDGKACAGVGQSSLMAYYETMFDQLDVTVAQMLVTDSSFRDKDFRKQLSETVKAMLRMRVIPVFNENDAISTRRAPYKDSTGIFWDNDSLAALLSLELKADLLILLSDVEGLYTGPPSDSTSKLIHTFIKEKHQDEITFGEKSKLGRGGMTAKVKAAVNAAYGGVPVIITSGYAAENISKVLRGLRVGTLFHQDAHLWAPVVDTTSRDMAVAARESSRKLQALSSEDRKQILHDIANALEVNEKTIKAENDLDVAAAQEAGYEESLVARLVMKPGKISSLAASVRQLAEMEDPIGRVLKKTQVADDLILEKTSSPIGVLLIVFESRPDALVQIASLAIRSGNGLLLKGGKEARRSNAILHKVITDAIPETVGGKLIGLVTSREEIPDLLKLDDVIDLVIPRGSNKLVSQIKNSTKIPVLGHADGICHVYVDKSGKLDMAKRIVSDAKLDYPAACNAMETLLVHKDLEQNGFLDDLIYVLQTKGVTLYGGPRASAKLNIPETKSFHHEYSSKACTVEIVEDVYGAIDHIHQHGSAHTDCIVTEDSEVAEIFLRQVDSAAVFHNASTRFSDGFRFGLGAEVGISTSRIHARGPVGVEGLLTTRWIMRGKGQVVDGDNGIVYTHKDLPVLQRTEAVENGI
As to B2, the binding entry was “no binding” in assay [2] and “no binding (tested: about 2-4 μM protein, all substrates)” in assay [3].

B3: Arabidopsis thaliana delta-1-pyrroline-5-carboxylate synthase 1 (AtP5CS1) (enzyme, UniProt P54887 1-717, looked up)
chain: MEELDRSRAFARDVKRIVVKVGTAVVTGKGGRLALGRLGALCEQLAELNSDGFEVILVSSGAVGLGRQRLRYRQLVNSSFADLQKPQTELDGKACAGVGQSSLMAYYETMFDQLDVTAAQLLVNDSSFRDKDFRKQLNETVKSMLDLRVIPIFNENDAISTRRAPYQDSSGIFWDNDSLAALLALELKADLLILLSDVEGLYTGPPSDPNSKLIHTFVKEKHQDEITFGDKSRLGRGGMTAKVKAAVNAAYAGIPVIITSGYSAENIDKVLRGLRVGTLFHQDARLWAPITDSNARDMAVAARESSRKLQALSSEDRKKILLDIADALEANVTTIKAENELDVASAQEAGLEESMVARLVMTPGKISSLAASVRKLADMEDPIGRVLKKTEVADGLVLEKTSSPLGVLLIVFESRPDALVQIASLAIRSGNGLLLKGGKEARRSNAILHKVITDAIPETVGGKLIGLVTSREEIPDLLKLDDVIDLVIPRGSNKLVTQIKNTTKIPVLGHADGICHVYVDKACDTDMAKRIVSDAKLDYPAACNAMETLLVHKDLEQNAVLNELIFALQSNGVTLYGGPRASKILNIPEARSFNHEYCAKACTVEVVEDVYGAIDHIHRHGSAHTDCIVTEDHEVAELFLRQVDSAAVFHNASTRFSDGFRFGLGAEVGVSTGRIHARGPVGVEGLLTTRWIMRGKGQVVDGDNGIVYTHQDIPIQA
notes: Delta-1-pyrroline-5-carboxylate synthase 1 (P5CS1) of Arabidopsis thaliana; also called His6-AtP5CS1; not shown: His6, N-terminal, kept
As to B3, in assay [4], the binding entry was “no binding”.

B4: AtP5CS2-GK, truncated AtP5CS2 consisting of residues 1-290 (glutamate kinase domain) (domain or fragment, Arabidopsis thaliana, UniProt P54888 1-290, looked up)
chain: MTEIDRSRAFAKDVKRIVVKVGTAVVTGKGGRLALGRLGAICEQLAELNSDGFEVILVSSGAVGLGRQRLRYRQLVNSSFADLQKPQMELDGKACAGVGQSSLMAYYETMFDQLDVTVAQMLVTDSSFRDKDFRKQLSETVKAMLRMRVIPVFNENDAISTRRAPYKDSTGIFWDNDSLAALLSLELKADLLILLSDVEGLYTGPPSDSTSKLIHTFIKEKHQDEITFGEKSKLGRGGMTAKVKAAVNAAYGGVPVIITSGYAAENISKVLRGLRVGTLFHQDAHLWAPV
notes: Delta-1-pyrroline-5-carboxylate synthase 2 (P5CS2) of Arabidopsis thaliana, residues 1-290, the glutamate kinase (GK) domain; probably made as His6-SUMO fusion in E. coli and cleaved with ULP1 like the full-length AtP5CS2 (surmised); also called AtP5CS2 GK domain
For B4, the binding entry in assay [5] is “binds weakly”.
